The target in assay [1] is T1, SFB-PPM1G full length (FL) (human) (UniProt O15355).
T1 sequence: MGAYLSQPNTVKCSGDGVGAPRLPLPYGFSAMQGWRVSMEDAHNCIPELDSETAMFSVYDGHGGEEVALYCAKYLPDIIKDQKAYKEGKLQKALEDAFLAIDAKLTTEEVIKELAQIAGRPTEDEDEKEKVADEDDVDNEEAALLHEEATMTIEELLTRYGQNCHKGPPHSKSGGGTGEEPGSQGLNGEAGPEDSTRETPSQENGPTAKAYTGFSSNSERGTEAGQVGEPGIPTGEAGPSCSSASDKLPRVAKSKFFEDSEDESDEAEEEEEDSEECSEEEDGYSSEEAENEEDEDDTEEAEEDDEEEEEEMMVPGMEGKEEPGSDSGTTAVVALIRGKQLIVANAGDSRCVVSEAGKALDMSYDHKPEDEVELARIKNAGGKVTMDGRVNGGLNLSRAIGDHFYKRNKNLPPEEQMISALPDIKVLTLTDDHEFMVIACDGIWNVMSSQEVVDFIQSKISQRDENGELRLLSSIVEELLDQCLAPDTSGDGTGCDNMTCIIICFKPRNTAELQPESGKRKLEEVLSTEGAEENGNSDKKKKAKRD
Put plainly: pull-down; SFB-tagged bait and Myc-tagged prey co-transfected in cells, lysate pulled down with streptavidin beads, immunoblot with Myc antibody. (Immunoblotting shows a protein as a band on a membrane.)

By UniProt entry, the sequences of proteins in these tests, tags left out. Where a name states a change or a piece, a line headed by the entry shows the natural chain unless it says otherwise.
UniProt P35221: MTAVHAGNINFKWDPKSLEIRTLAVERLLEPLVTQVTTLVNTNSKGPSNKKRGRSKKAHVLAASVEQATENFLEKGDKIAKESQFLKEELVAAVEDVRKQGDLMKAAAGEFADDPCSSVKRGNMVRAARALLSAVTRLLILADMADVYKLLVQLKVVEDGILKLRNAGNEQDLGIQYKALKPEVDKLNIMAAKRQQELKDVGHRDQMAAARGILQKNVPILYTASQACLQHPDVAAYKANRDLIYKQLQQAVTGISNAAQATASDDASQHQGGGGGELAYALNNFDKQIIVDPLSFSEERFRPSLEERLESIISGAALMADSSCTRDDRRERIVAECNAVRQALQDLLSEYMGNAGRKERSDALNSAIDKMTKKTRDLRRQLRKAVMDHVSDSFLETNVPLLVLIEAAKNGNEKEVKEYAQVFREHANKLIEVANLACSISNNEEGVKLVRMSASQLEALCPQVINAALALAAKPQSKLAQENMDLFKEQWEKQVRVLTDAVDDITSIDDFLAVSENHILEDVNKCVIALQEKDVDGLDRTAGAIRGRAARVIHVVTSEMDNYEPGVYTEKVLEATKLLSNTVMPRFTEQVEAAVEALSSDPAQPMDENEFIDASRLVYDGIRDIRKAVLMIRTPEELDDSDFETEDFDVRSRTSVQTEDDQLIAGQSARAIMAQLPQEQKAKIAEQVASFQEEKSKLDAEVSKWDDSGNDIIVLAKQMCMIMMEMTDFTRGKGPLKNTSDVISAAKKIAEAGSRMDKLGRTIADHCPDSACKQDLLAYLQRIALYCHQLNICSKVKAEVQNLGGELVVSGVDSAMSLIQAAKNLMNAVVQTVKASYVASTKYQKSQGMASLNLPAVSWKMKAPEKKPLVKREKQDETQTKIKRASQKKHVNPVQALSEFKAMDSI
UniProt P67775: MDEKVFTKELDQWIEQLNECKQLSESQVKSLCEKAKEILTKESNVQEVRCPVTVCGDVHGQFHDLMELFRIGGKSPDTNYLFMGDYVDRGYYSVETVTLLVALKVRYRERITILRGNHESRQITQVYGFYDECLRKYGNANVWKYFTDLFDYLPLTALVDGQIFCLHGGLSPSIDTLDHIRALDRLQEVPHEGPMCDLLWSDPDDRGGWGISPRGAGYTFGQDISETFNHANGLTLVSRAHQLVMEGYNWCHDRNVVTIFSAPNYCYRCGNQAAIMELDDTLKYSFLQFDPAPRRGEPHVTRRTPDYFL
UniProt Q14738: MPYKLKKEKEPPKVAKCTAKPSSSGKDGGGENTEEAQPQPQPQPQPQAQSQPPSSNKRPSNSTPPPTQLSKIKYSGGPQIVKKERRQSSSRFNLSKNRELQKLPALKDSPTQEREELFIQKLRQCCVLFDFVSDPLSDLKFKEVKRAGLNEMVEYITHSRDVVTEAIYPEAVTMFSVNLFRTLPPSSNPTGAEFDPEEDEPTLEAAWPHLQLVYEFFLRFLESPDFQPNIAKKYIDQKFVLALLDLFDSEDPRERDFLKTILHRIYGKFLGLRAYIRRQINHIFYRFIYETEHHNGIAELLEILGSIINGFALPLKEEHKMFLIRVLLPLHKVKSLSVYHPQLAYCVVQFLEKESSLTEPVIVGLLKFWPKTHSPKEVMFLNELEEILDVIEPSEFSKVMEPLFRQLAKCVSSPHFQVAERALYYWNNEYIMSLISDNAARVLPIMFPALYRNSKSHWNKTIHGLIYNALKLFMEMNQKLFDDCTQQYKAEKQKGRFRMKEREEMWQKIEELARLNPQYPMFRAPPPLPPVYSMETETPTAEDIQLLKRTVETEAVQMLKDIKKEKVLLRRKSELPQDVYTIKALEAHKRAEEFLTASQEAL
UniProt P30154: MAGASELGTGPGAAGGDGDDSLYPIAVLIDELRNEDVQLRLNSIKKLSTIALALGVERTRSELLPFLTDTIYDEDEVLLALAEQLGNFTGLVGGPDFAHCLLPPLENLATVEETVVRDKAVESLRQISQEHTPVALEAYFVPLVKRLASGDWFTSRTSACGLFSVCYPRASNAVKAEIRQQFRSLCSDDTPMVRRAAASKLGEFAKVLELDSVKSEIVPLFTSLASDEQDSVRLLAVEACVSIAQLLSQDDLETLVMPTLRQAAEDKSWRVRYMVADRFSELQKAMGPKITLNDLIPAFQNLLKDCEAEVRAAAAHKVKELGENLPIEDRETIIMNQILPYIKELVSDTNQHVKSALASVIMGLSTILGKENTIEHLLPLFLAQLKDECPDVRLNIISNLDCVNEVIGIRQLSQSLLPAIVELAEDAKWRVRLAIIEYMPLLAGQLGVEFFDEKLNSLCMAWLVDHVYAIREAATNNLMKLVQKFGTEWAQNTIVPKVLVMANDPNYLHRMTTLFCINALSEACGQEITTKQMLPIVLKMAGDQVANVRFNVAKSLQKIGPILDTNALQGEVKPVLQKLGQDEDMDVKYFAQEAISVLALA
UniProt Q16537: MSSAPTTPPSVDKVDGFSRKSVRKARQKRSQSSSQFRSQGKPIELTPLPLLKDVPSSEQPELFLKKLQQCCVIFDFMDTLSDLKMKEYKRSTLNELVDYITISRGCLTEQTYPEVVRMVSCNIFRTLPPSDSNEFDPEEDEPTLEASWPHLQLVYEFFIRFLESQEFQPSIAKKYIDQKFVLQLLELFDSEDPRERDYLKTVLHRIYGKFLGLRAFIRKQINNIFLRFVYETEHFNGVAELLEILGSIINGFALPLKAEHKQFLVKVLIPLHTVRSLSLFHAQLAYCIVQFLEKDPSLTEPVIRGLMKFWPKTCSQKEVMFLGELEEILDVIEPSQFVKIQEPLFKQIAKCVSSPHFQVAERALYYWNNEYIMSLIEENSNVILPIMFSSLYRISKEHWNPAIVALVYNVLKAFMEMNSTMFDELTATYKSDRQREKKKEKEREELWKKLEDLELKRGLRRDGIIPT
UniProt P30153: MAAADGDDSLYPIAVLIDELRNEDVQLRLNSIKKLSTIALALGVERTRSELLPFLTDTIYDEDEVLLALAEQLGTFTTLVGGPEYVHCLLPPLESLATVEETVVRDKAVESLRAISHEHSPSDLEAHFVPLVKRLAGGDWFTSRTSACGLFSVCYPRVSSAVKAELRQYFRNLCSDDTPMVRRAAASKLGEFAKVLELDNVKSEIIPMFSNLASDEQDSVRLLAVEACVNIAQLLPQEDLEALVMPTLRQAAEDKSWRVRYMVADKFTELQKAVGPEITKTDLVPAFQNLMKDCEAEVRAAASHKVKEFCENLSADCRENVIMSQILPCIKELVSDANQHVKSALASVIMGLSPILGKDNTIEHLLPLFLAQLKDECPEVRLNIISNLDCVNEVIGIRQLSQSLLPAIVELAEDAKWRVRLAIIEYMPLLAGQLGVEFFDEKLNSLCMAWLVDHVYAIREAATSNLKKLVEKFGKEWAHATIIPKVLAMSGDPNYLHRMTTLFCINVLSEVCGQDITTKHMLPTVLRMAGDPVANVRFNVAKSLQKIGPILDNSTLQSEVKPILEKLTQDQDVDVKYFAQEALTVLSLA
UniProt P62714: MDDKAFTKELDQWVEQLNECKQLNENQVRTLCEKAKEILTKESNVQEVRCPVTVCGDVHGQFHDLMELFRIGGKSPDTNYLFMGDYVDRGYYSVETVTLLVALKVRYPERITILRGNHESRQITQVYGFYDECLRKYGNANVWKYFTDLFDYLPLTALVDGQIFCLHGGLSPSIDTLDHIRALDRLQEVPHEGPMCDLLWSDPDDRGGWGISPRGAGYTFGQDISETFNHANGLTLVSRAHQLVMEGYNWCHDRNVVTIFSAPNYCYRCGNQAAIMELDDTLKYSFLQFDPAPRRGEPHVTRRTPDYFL
UniProt Q15172: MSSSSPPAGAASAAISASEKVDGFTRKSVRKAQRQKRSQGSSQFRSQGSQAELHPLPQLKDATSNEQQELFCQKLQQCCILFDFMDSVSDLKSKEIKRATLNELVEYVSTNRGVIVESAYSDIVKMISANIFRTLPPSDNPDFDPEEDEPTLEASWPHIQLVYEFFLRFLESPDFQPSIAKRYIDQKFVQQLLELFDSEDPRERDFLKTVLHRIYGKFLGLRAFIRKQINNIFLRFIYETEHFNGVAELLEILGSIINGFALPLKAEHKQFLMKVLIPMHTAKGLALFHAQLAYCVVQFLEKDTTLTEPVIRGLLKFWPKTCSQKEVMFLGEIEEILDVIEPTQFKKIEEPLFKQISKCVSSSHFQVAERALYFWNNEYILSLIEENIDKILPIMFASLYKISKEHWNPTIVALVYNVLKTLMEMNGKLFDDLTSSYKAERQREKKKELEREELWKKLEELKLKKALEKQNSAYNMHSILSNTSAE
UniProt Q15173: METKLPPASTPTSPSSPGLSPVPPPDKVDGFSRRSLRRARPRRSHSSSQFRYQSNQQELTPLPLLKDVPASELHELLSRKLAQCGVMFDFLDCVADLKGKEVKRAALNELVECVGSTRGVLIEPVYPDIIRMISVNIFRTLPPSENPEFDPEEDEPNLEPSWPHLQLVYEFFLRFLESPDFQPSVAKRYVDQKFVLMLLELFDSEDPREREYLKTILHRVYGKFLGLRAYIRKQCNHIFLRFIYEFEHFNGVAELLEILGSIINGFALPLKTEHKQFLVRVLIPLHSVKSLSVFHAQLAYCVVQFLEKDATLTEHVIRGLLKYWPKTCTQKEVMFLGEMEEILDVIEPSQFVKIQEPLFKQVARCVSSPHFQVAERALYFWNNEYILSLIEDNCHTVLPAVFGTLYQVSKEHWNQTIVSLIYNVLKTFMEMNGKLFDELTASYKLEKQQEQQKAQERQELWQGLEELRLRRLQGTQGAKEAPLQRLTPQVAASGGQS
UniProt P35222: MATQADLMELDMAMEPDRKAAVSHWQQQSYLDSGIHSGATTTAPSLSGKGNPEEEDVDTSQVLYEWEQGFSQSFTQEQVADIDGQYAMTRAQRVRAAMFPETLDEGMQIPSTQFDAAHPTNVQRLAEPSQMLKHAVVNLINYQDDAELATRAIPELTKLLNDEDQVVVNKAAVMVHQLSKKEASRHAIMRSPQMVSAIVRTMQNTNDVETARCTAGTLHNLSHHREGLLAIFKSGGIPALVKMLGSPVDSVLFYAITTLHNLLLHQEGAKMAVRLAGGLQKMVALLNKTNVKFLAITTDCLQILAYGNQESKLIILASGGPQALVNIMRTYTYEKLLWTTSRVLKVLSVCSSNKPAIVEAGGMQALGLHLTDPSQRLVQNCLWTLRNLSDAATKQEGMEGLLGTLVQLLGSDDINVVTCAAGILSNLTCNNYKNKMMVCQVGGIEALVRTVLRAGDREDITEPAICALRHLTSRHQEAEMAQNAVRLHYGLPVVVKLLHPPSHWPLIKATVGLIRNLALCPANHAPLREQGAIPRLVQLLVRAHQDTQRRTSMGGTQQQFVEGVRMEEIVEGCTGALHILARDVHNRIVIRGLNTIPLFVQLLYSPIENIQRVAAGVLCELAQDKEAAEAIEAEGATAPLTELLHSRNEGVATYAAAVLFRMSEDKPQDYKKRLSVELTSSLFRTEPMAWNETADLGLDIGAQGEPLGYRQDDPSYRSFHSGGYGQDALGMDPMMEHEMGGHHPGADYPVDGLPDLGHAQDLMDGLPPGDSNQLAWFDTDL

Assay [2] deals with SFB-α-catenin (UniProt P35221). Put plainly: pull-down; SFB-tagged bait expressed in cells (HEK293T/293T where named), lysate in NETN buffer, streptavidin Sepharose beads 1 h at 4°C, endogenous prey detected by Western blot; Fig 3B/3L control shRNA cells; Fig 4C control, PPM1G and B56δ shRNA cells.
Assay [3] addresses SFB-α-catenin (UniProt P35221). Briefly: co-IP; cytoplasmic fraction of cells expressing SFB-α-catenin; immunoprecipitation with Flag, blots with PPM1G and β-catenin antibodies.
Assay [4] addresses SFB-α-catenin (UniProt P35221). Put plainly: co-IP; nuclear fraction of cells expressing SFB-α-catenin; immunoprecipitation with Flag, blots with PPM1G and β-catenin antibodies.
Assay [5] deals with endogenous α-catenin (human (endogenous in HEK293T)) (UniProt P35221). Put plainly: co-IP; endogenous proteins; immunoprecipitation with IgG or α-catenin antibody, immunoblot with PPM1G antibody.
Assay [6] concerns the target SFB-PPP2CA (UniProt P67775). Put plainly: pull-down; SFB-tagged bait expressed in cells (HEK293T/293T where named), lysate in NETN buffer, streptavidin Sepharose beads 1 h at 4°C, endogenous prey detected by Western blot; Fig 3B/3L control shRNA cells; Fig 4C control, PPM1G and B56δ shRNA cells.
The target of assay [7] is SFB-B56δ H282A (human) (UniProt Q14738). The description is as above.
In assay [8] the target is SFB-PPP2R1B (UniProt P30154). The assay is described as above.
Assay [9] addresses SFB-B56δ full length (FL) (human) (UniProt Q14738). The assay is described as above.
The target of assay [10] is SFB-B56ε (human) (UniProt Q16537). The assay is described as above.
For assay [11], the target named is SFB-PPP2R1A (UniProt P30153). The assay is described as above.
For assay [12], the target named is SFB-PPP2CB (UniProt P62714). Described as above.
Assay [13] concerns the target SFB-B56δ L183A (human) (UniProt Q14738). The description is as above.
Assay [14] addresses SFB-B56α (human) (UniProt Q15172). Described as above.
The target of assay [15] is SFB-B56β (human) (UniProt Q15173). The assay is described as above.
Assay [16] deals with SFB-α-catenin (UniProt P35221). Put plainly: co-IP; SFB-α-catenin and Myc-PPM1G expressed in 293T cells; immunoprecipitation with IgG or Flag antibody, blot with Myc antibody.
Assay [17] addresses GST-PPP2R1A (UniProt P30153). Put plainly: pull-down; GST-tagged bait on glutathione Sepharose beads incubated with MBP-tagged prey for 1 h at 4°C, detection with MBP antibody; both purified.

The values below come from publication PMC6776900, “PPM1G forms a PPP‐type phosphatase holoenzyme with B56δ that maintains adherens junction integrity” (EMBO Reports, 2019).

Results are given in words; binding and its absence hold for the method and conditions named. For some of these results: In cells and extracts the contact can be indirect. Some results given as binding are weak or reduced against the parent protein; the word gives no strength. For some of these results: Sequences can lack the tags named with a protein.

Take “Myc-tagged α-catenin (from UniProt P35221 1-906)”: the binding entry in assay [1] is reported as “binds”.
For the molecule “endogenous β-catenin (from UniProt P35222 1-781)”, the binding entry in assay [2], in [3] and in assay [4] was “binds” each time.

B1: endogenous PPM1G (enzyme, UniProt O15355 1-546)
chain: T1 sequence
For B1, the binding entry is given as “binds” in [5]; “binds” in assay [3]; “no binding (condition: nuclear fraction)” in assay [4]; “no binding” in assay [6]; “binds” in assay [7]; “no binding” in assay [8]. The binding entry in [9] is “binds”; in assay [10], “no binding”; in [11], “no binding”; in assay [12], “no binding”; in assay [13], “binds”; in [14] it was “no binding”. For the same molecule, in assay [15], the binding entry is listed as “no binding”.

B2: Myc-PPM1G (enzyme, UniProt O15355 1-546)
chain: T1 sequence
On to B2, for which, in assay [16], the binding result is recorded as “binds”.

B3: MBP-PPM1G (enzyme, UniProt O15355 1-546)
chain: T1 sequence
For B3, the binding result in assay [17] is given as “no binding”.
